Usually Kd stands for the equilibrium constant for the complex coming apart. Higher therefore signals lower affinity.

The values below come from US20100184672A1 (published 2010).

The assay has as its target T1, glycocalicin (the proteolytic fragment of GPIb) (human, UniProt P07359 part only).
T1 construct: domain: glycocalicin (the proteolytic fragment of GPIb); Purified from human platelets; coated on the SPR sensor
Description: SPR, ligand perfused over glycocalicin-coated sensor, Langmuir one-to-one fit. The text has this: The sensorgrams at different concentrations were obtained and normalized by subtracting background signals from the glycocalicin surface.
(SPR reads the build-up and loss of mass on a sensor chip optically.)

B1: A1 domain of von Willebrand factor (ligand)
chain: not shown
notes: domain: A1 domain; Printed once as 'AI domain of VWF' (a misprint of A1); also called VWF A1; AI domain of VWF
Turning to B1, the affinity, expressed as Kd, was 36 nM.
